Assay results: the supplement of paper PMC4967469
By IC50 is meant the dose at which the fit gives 50% viability; where the fit passes the top or lowest dose, that dose stands as a limit. The AUC spans the tested range (256-fold, ending at the top dose) of the same fit; values near 1 show little effect.

Compound: NC1(c2ccc(-c3nc4ccn5c(=O)[nH]nc5c4cc3-c3ccccc3)cc2)CCC1 [MK-2206]
Experiment: Viability of human cancer cell lines after 72 h of drug (GDSC screen)
Protocol: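 Human cancer cell lines in 384-well plates, medium with 10% serum, drug for 72 h over a 256-fold dose range (nine 2-fold or five 4-fold steps up to the top dose). Adherent lines were fixed and stained with the nucleic acid dye Syto60, suspension lines read with resazurin; signal relative to control wells, capped at 0 and 100%. One two-parameter sigmoid per drug and line, fitted in a mixed model over all curves with the slope shared within a line.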

Cell Line: BHY (head and neck, adherent, top dose 2 µM)
- AUC: 0.981
- IC50: > 2 µM

Cell Line: OCI-LY7 (B-cell lymphoma, suspension, top dose 4 µM)
- AUC: 0.295
- IC50: 0.08 µM

Cell Line: TGBC11TKB (stomach, adherent, top dose 4 µM)
- AUC: 0.992
- IC50: > 4 µM

Cell Line: WM-115 (melanoma, adherent, top dose 4 µM)
- AUC: 0.905
- IC50: > 4 µM

Cell Line: GT3TKB (stomach, adherent, top dose 2 µM)
- AUC: 0.987
- IC50: > 2 µM

Cell Line: ZR-75-30 (breast, adherent, top dose 4 µM)
- AUC: 0.809
- IC50: 3.6 µM

Cell Line: FLO-1 (oesophagus, adherent, top dose 4 µM)
- AUC: 0.657
- IC50: 0.835 µM

Cell Line: A673 (rhabdomyosarcoma, adherent, top dose 4 µM)
- AUC: 0.984
- IC50: > 4 µM

Cell Line: SW684 (fibrosarcoma, adherent, top dose 4 µM)
- AUC: 0.968
- IC50: > 4 µM

Cell Line: BC-1 (B-cell lymphoma, suspension, top dose 4 µM)
- AUC: 0.982
- IC50: > 4 µM

Cell Line: RCH-ACV (B-cell leukaemia, suspension, top dose 4 µM)
- AUC: 0.364
- IC50: 0.114 µM

Cell Line: RPMI-8226 (myeloma, suspension, top dose 4 µM)
- AUC: 0.84
- IC50: 2.25 µM

Cell Line: ALL-SIL (T-cell leukaemia, suspension, top dose 4 µM)
- AUC: 0.802
- IC50: 1.65 µM

Cell Line: JHH-7 (liver, adherent, top dose 4 µM)
- AUC: 0.964
- IC50: > 4 µM

Cell Line: CESS (acute myeloid leukaemia, suspension, top dose 4 µM)
- AUC: 0.978
- IC50: > 4 µM

Cell Line: NCI-H841 (small cell lung carcinoma, adherent, top dose 4 µM)
- AUC: 0.867
- IC50: 3.65 µM

Cell Line: CAL-72 (osteosarcoma, adherent, top dose 4 µM)
- AUC: 0.952
- IC50: > 4 µM

Cell Line: NCI-H520 (lung squamous cell carcinoma, adherent, top dose 4 µM)
- AUC: 0.677
- IC50: 0.796 µM

Cell Line: NCI-H2405 (lung adenocarcinoma, adherent, top dose 4 µM)
- AUC: 0.942
- IC50: > 4 µM

Cell Line: MC-IXC (neuroblastoma, adherent, top dose 4 µM)
- AUC: 0.942
- IC50: 3.91 µM

Cell Line: HCT-15 (large intestine, adherent, top dose 4 µM)
- AUC: 0.761
- IC50: 1.5 µM

Cell Line: 8505C (thyroid, adherent, top dose 4 µM)
- AUC: 0.876
- IC50: > 4 µM

Cell Line: MSTO-211H (mesothelioma, adherent, top dose 4 µM)
- AUC: 0.878
- IC50: 3.4 µM

Cell Line: Daudi (Burkitt lymphoma, suspension, top dose 4 µM)
- AUC: 0.848
- IC50: 2.42 µM

Cell Line: HCC1143 (breast, adherent, top dose 4 µM)
- AUC: 0.931
- IC50: > 4 µM

Cell Line: MDA-MB-330 (breast, adherent, top dose 4 µM)
- AUC: 0.625
- IC50: 0.58 µM

Cell Line: IST-SL2 (small cell lung carcinoma, suspension, top dose 4 µM)
- AUC: 0.728
- IC50: 1.11 µM

Cell Line: MG-63 (osteosarcoma, adherent, top dose 4 µM)
- AUC: 0.884
- IC50: > 4 µM

Cell Line: SK-GT-4 (oesophagus, adherent, top dose 4 µM)
- AUC: 0.616
- IC50: 0.565 µM

Cell Line: IA-LM (large cell lung carcinoma, adherent, top dose 4 µM)
- AUC: 0.95
- IC50: > 4 µM

Cell Line: SKM-1 (haematopoietic neoplasm, suspension, top dose 4 µM)
- AUC: 0.705
- IC50: 1.01 µM

Cell Line: TE-8 (oesophagus, adherent, top dose 4 µM)
- AUC: 0.926
- IC50: > 4 µM

Cell Line: VMRC-RCZ (kidney, adherent, top dose 4 µM)
- AUC: 0.85
- IC50: 3.86 µM

Cell Line: PSN1 (pancreas, adherent, top dose 4 µM)
- AUC: 0.968
- IC50: > 4 µM

Cell Line: NCI-H2081 (small cell lung carcinoma, suspension, top dose 4 µM)
- AUC: 0.955
- IC50: > 4 µM

Cell Line: NCI-SNU-16 (stomach, suspension, top dose 4 µM)
- AUC: 0.991
- IC50: > 4 µM

Cell Line: LU-134-A (small cell lung carcinoma, suspension, top dose 4 µM)
- AUC: 0.781
- IC50: 1.77 µM

Cell Line: HeLa (cervix, adherent, top dose 4 µM)
- AUC: 0.951
- IC50: > 4 µM

Cell Line: Raji (Burkitt lymphoma, suspension, top dose 4 µM)
- AUC: 0.99
- IC50: > 4 µM

Cell Line: HCC-44 (lung adenocarcinoma, adherent, top dose 2 µM)
- AUC: 0.711
- IC50: 0.484 µM

Cell Line: CHP-134 (neuroblastoma, suspension, top dose 4 µM)
- AUC: 0.92
- IC50: > 4 µM

Cell Line: Caov-4 (ovary, adherent, top dose 4 µM)
- AUC: 0.829
- IC50: > 4 µM

Cell Line: COLO-320-HSR (large intestine, suspension, top dose 4 µM)
- AUC: 0.876
- IC50: 3.07 µM

Cell Line: KARPAS-45 (lymphoblastic leukaemia, suspension, top dose 4 µM)
- AUC: 0.626
- IC50: 0.522 µM

Cell Line: NB10 (neuroblastoma, adherent, top dose 4 µM)
- AUC: 0.975
- IC50: > 4 µM

Cell Line: PA-1 (ovary, adherent, top dose 4 µM)
- AUC: 0.915
- IC50: 3.62 µM

Cell Line: Hs683 (glioma, adherent, top dose 4 µM)
- AUC: 0.796
- IC50: 1.9 µM

Cell Line: OE19 (oesophagus, adherent, top dose 4 µM)
- AUC: 0.927
- IC50: > 4 µM

Cell Line: ALL-PO (lymphoblastic leukaemia, suspension, top dose 4 µM)
- AUC: 0.595
- IC50: 0.463 µM

Cell Line: NCI-H226 (lung squamous cell carcinoma, adherent, top dose 4 µM)
- AUC: 0.955
- IC50: > 4 µM

Cell Line: NCI-H2444 (non-small cell lung carcinoma, adherent, top dose 4 µM)
- AUC: 0.905
- IC50: > 4 µM

Cell Line: CADO-ES1 (Ewing sarcoma, suspension, top dose 4 µM)
- AUC: 0.988
- IC50: > 4 µM

Cell Line: CAPAN-1 (pancreas, adherent, top dose 4 µM)
- AUC: 0.869
- IC50: > 4 µM

Cell Line: TC-YIK (cervix, suspension, top dose 4 µM)
- AUC: 0.968
- IC50: > 4 µM

Cell Line: ROS-50 (B-cell leukaemia, suspension, top dose 4 µM)
- AUC: 0.984
- IC50: > 4 µM

Cell Line: PE/CA-PJ15 (head and neck, adherent, top dose 4 µM)
- AUC: 0.913
- IC50: > 4 µM

Cell Line: RF-48 (stomach, adherent, top dose 4 µM)
- AUC: 0.932
- IC50: > 4 µM

Cell Line: 8-MG-BA (glioma, adherent, top dose 4 µM)
- AUC: 0.945
- IC50: > 4 µM

Cell Line: HLE (liver, adherent, top dose 2 µM)
- AUC: 0.971
- IC50: > 2 µM

Cell Line: DK-MG (glioma, adherent, top dose 4 µM)
- AUC: 0.926
- IC50: > 4 µM

Cell Line: HCC2218 (breast, suspension, top dose 4 µM)
- AUC: 0.869
- IC50: > 4 µM
